Data reported in article PMC6919601, “Identification of Plasmodium dipeptidyl aminopeptidase allosteric inhibitors by high throughput screening” (PLoS ONE, 2019).
The campaign covered roughly 110,000 compounds. About 230 (0.21%) showed an effect of 50% or more. The list shows a part of the results.

Biological target: DPAP1 (Plasmodium falciparum, UniProt Q8IIJ9)
Assay: primary screen, percent inhibition; read by cleavage of a fluorogenic dipeptide substrate; higher = more effect of the substance
Parameters: species or system P. falciparum D10 trophozoite lysates; single well
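Further: 30 min substrate incubation versus DMSO and 10 µM JCP410 controls.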

Chain of DPAP1 (Q8IIJ9 whole entry, looked up): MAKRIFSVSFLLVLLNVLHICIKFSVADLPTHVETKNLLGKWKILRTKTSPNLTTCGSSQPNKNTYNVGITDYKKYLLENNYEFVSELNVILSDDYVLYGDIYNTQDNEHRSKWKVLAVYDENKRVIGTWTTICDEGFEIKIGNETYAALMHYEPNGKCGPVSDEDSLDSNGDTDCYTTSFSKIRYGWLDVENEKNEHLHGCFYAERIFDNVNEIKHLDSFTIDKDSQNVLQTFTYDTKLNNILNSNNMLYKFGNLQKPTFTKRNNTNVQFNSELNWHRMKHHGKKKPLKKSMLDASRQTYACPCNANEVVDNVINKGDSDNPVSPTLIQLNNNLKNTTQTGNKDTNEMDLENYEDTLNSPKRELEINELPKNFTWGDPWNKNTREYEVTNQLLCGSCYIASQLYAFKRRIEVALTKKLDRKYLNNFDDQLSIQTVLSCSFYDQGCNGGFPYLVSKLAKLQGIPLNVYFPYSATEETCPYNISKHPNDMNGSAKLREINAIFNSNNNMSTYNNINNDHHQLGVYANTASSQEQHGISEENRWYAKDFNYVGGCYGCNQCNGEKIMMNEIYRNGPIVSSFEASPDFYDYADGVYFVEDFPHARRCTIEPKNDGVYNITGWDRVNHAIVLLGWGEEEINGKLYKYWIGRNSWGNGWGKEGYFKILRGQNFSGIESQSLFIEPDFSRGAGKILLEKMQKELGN

Structure (SMILES) | % Inhibition @ 10 uM [%]
COc1ccc(C2NC(=O)c3c(sc4c3CCN(C)C4)N2)cc1Br (stereo not shown) | 2.02
CCC(Sc1nc2nnc(C)c-2c(N)n1-c1cccc(C)c1)C(=O)N(CC)CC (stereo not shown) | -0.668
CCC/N=c1\c(NC(=O)c2c(-c3ccccc3Cl)noc2C)c(O)oc2ccccc12 | -4.27
CCOc1ccccc1NC1=C(Cl)C(=O)N(c2ccccc2C)C1=O | 2.08
OCc1nc(CO)n(Cc2ccccc2)n1 | -1.45
Cc1ccc(C(C#N)NC(=O)[C@H](CC(C)C)NC(=O)OCc2ccccc2)s1 (stereo partly shown) | 0.174
CCC(C)n1c(=N)c(C(=O)NC(C)c2ccccc2)cc2c(=O)n3cc(C)ccc3nc21 (stereo not shown) | 3.6
CC(C)(C)S(=O)(=O)c1ccsc1 | 3.34
COc1ccc(/C(C)=N/OCc2nc3c4cnn(-c5ccc(C)cc5)c4ncn3n2)cc1OC | -2.14
O=C1CC(c2coc3ccccc3c2=O)Sc2ccccc2N1 (stereo not shown) | -4.07
CC1(C)CC2=Nc3ccccc3NC(c3ccccc3O)C2=C(O)C1 (stereo not shown) | 0.634
CCC1CCc2nc3sc(C(=O)Nc4cc(OC)c(OC)c(OC)c4)c(N)c3cc2C1 (stereo not shown) | 4.85
CCOCCCNC(=O)CCCn1nc(C)c2c(C)n(-c3ccccc3)nc2c1=O | -2.87
COc1ccc(CNC(=O)Cn2nc(C)c3c(C)n(-c4ccc(C)cc4)nc3c2=O)c(OC)c1 | 1.28
C=CCOc1ccc(/C=C2\C(=O)NC(C)=C2C(=O)OC)cc1OC | -0.597
O=C(CCC(=O)N1Cc2ccccc2Oc2ncccc21)NCCc1cccs1 | 0.627
Cc1ccc(C2=CC(c3cccc(F)c3)NC(S)=N2)o1 (stereo not shown) | 0.0719
CCCCc1ccc(-c2csc(N)c2C#N)cc1 | 5.87
COc1ccc(C(=O)Nc2ccccc2C(=O)NC2CCCCC2)cc1S(=O)(=O)N1CCCC1 | -2.63
c1csc(COc2ccccc2CNC2CCCCC2)c1 | 1.63
CCOc1cccc(CN2CCc3ccccc3C2)c1O | -4.75
CN(Cc1ccccc1)C(=O)CCC(=O)N(C)Cc1ccccc1 | -8.75
CCOc1ccc(CNC(=O)c2cc(O)nc3ccc(S(=O)(=O)N4CCCCC4C)cc23)cc1 (stereo not shown) | 0.387
Cc1c(CC(=O)N2CCOCC2)c(=O)oc2c(C)c3occ(C(C)(C)C)c3cc12 | 3.94
O=C(Cn1cnc2c(nnn2Cc2ccccc2F)c1=O)NCc1ccco1 | 1.24

Structure (SMILES) | % Inhibition @ 10 uM [%]
O=S(=O)(NCCC1=CCCCC1)c1ccc(-c2cc(C(F)(F)F)no2)s1 | 0.185
COc1ccc(C2SCCN2S(=O)(=O)c2ccc3ccccc3c2)cc1OC (stereo not shown) | 6.07
COc1cccc(C2Oc3ccccc3C3=C2C(c2ccc(C)cc2)n2ncnc2N3)c1 (stereo not shown) | 1.53
C/C(Cn1nnc2ccccc21)=N/OC(=O)c1c(F)cccc1F | 4.01
COc1ccc(NC(=O)CCC(=O)Nc2cccc(C)c2)cc1 | -6.75
Cc1ccc(C)c(CN2CCC(C(N)=O)CC2)c1 | -4.04
CCCCCCn1cnc2c1c(=O)[nH]c(=O)n2C | -1.47
COc1cc([N+](=O)[O-])ccc1N1CCCC1 | 1.13
CC(C)(C)C1CC(C(F)(F)F)n2nc(C(=O)Nc3cccnc3Cl)cc2N1 (stereo not shown) | -3.05
CC1CC(=O)C2=C(C1)OC(N)=C(C#N)C2c1ccc(Br)s1 (stereo not shown) | 3.54
c1ccc(NCc2cn3ccccc3n2)cc1 | -2.03
C=CCN(CC=C)C(=O)c1ccc(OC)c(OC)c1 | -1.93
Cc1ccc(C2=CC(c3ccc(Br)cc3)n3ncnc3N2)cc1 (stereo not shown) | -4.26
O=C(O)c1ccc(NC(=O)c2cc([N+](=O)[O-])ccc2Cl)cc1 | -0.197
CC(=O)c1c(C)n(-c2cccc(Cl)c2)c2ccc(O)cc12 | -0.0217
O=C(c1ccccc1Nc1ccccc1)N1CCCCC1 | 2.22
COc1cc(NS(=O)(=O)c2ccc(Br)cc2)c(OC)cc1Cl | -3.18
CC(=O)c1ccc2c(c1)C(=O)c1cc(C(C)=O)ccc1-2 | 3.34
CCOc1ccc(Cl)cc1S(=O)(=O)NCc1cccnc1 | 5.66
CSC1=NSC2=NC(=O)/C(=C\c3ccc(C)cc3)C(=N)N12 | -1.31
O=C(C1CCN(S(=O)(=O)c2cccc3nsnc23)CC1)N1CCn2c1nc1ccccc12 | 0.208
CCN1C(=O)C(CC(=O)O)S/C1=N/c1ccc(F)cc1 (stereo not shown) | -5.27
Cc1oc2cc(O)cc(C)c2c(=O)c1Oc1ccccc1 | 2.79
CN(C1CCCCC1)S(=O)(=O)c1ccc(-n2cccn2)cc1 | -2.65
Cc1cc(C)nc(NC(=O)c2sc3ccccc3c2Cl)c1 | -2.07

Structure (SMILES) | % Inhibition @ 10 uM [%]
O=C1c2cccnc2C(=O)N1Cc1ccc2c(c1)OCO2 | -1.82
O=C(CC(c1ccc(F)cc1)N1Cc2ccccc2C1=O)N1CCN(C(=O)c2ccco2)CC1 (stereo not shown) | -5.54
OCCNCc1cc(Cl)ccc1OCc1ccc(Cl)cc1 | 9.88
O=C(C(Cc1ccccc1)n1cccc1)N1CCN(Cc2ccccc2)CC1 (stereo not shown) | -0.692
CC(C)C[C@@H](C(=O)NCC#N)c1cccc(-c2cccc(OC3CCN(C)C3)c2)c1 (stereo partly shown) | 1.7
CC(C)(C)NC(=O)c1nn2c(C(F)(F)F)cc(-c3ccco3)nc2c1Br | -0.992
Cc1cc(Cl)ccc1OCC(=O)NC1CCCC1 | 0.147
COc1cc(C2C(C(=O)c3cc4ccccc4o3)=C(O)C(=O)N2c2nnc(C)s2)ccc1O (stereo not shown) | 0.413
COc1ccccc1NC(=O)/C(=C/c1cccs1)NC(=O)c1ccc(C)c(C)c1 | 0.746
O=C(CNC(=O)c1cc2ccccc2o1)NCc1cccs1 | -3.93
O=C1C(Cl)=C(N2CCOCC2)C(=O)N1c1cccc(Cl)c1Cl | 1.82
COc1ccc(OCC(=O)NCCC23CC4CC(CC(C4)C2)C3)cc1 | 4.85
Cn1c(C(=O)O)c(CC(=O)N2CCC(Cc3ccccc3)CC2)c2ccccc21 | 2.84
C/C(=C\c1ccccc1)CN(C)C1CCN(C)CC1 | 1.26
Nc1ccc(C2CC(=O)NC(=O)N2)cc1 (stereo not shown) | 3.61
COCc1cc(C)nc2sc(C(=O)Nc3ccc(Cl)cc3Cl)c(N)c12 | 3.8
CO/C(O)=C1\C(C)=NC2=C(C(=O)CCC2)C1c1ccccc1OC (stereo not shown) | 2.45
Nc1cccc(/N=C/c2nc(-c3ccccc3Br)oc2O)n1 | -2.27
CC12CN3CC(C)(CN(C1)C3c1ccc3ccccc3c1O)C2=O (stereo not shown) | 0.878
O=C(NCc1cccs1)c1ccc(CS(=O)(=O)Cc2cccc(Cl)c2)o1 | -0.971
CC(=O)Nc1ccc(N/C=C/C(=O)c2ccc(-c3ccccc3)cc2)cc1 | 1.57
O=C(NC1(C(F)(F)F)C(=O)Nc2c1c(=O)[nH]c(=O)n2-c1ccccc1F)c1ccc(Cl)cc1 (stereo not shown) | 1.61
Cc1sc(C)c(-c2c(C)sc(C)c2C(=O)O)c1C(=O)O | 0.709
Cc1ccc(Cl)cc1NC(=O)c1ccc(N(C)S(C)(=O)=O)cc1 | 3.49
CC1(C)CC(=O)/C(=C/c2cccs2)C(C)(C)N1 | 1.66

Structure (SMILES) | % Inhibition @ 10 uM [%]
O=C(/C=C/c1ccccc1Cl)N1CCOCC1 | -2.12
Cc1nc2ncnn2c(C)c1CCC(=O)NC(C)C | -4.1
O=C(NCc1ccccc1)c1c(NC(=O)C2COc3ccccc3O2)sc2c1CCCC2 (stereo not shown) | -3.75
CC(C)(C)c1ccc(C(=O)NCCc2ccc(S(N)(=O)=O)cc2)cc1 | 2.82
c1ccc(-c2cn(-c3ccccc3)c3ncnc(NCc4ccco4)c23)cc1 | 10.5
Cc1ccc(-c2csc(/C(C#N)=C/c3ccccc3[N+](=O)[O-])n2)cc1 | 4.33
CCOc1ccc(C(=O)Nc2ccc3c(c2)OCCO3)cc1 | 2.13
Cc1n[nH]c(C)c1CCCCCOc1ccccc1F | -4.3
COc1ccc(S(=O)(=O)NCc2ccc(C(=O)NC3CCCCCCC3)cc2)cc1 | -1.76
Cc1ccc(CNC(=O)C(C)N2Cc3ccccc3C2=O)cc1 (stereo not shown) | 0.822
COCCCN(Cc1ccco1)C(=O)c1cc2c(Cl)nc3ccc(C)cc3c2s1 | -1.7
Clc1ccc(-n2ncc3c(NC4CCCCC4)ncnc32)cc1 | 7.77
COc1ccc(/C=C(/NC(=O)c2ccccc2)C(=O)O)c(OC)c1OC | -4.93
Cn1c(SCC(=O)Nc2nn(-c3ccccc3)nc2C(N)=O)nnc1-c1cccnc1 | -0.834
COc1ccccc1CNc1ncccc1N1C(=O)CCC1=O | -4.69
O=[N+]([O-])c1ccc(Nc2ccccc2O)c2nonc12 | 12.6
CCn1c2ccccc2c2cc(CNc3cccc(C)c3)ccc21 | -7.35
Cc1nc2ccn(Cc3cccs3)c(=O)c2cc1C(=O)NCCc1ccco1 | 0.0575
CCCCSc1nnc(NC(=O)CSc2ccc3ccccc3n2)s1 | 3.66
COc1ccc(NC(=O)c2ccco2)cc1Cl | -4.93
CCOC(=O)C1=C(O)/C(=C\c2cc(C)n(-c3ccccc3C(=O)OC)c2C)N=C1C | 3.47
CCOC(=O)c1c(N)nn(C(=O)c2ccccc2F)c1-c1ccc(OC)cc1 | -0.222
Cc1ccsc1/C=C1/N=C(c2cccc3ccccc23)OC1=O | 3.58
CCN(CC)CCCNC(=O)Cn1cnc2sc(C)c(S(=O)(=O)N3CCC(C)CC3)c2c1=O | 2.06
CN(C)c1ccc(CN2CCC(Cc3ccccc3)CC2)cc1 | -6.47
